Test results: PubChem BioAssay AID1476 (National Center for Advancing Translational Sciences (NCATS), 2009)
Hit rate of the full screen: of about 200,000 compounds, about 4,500 (2.2%) were called active. The inconclusive results got no clear call from the source; some entries with a clear call stand among them for comparison. Calls follow the shape of the dose curve; as a rule, active = well fitted inhibition curve with a large enough effect; inconclusive = small, poorly fitted or top-dose-only effect, or effect the other way; inactive = flat fitted curve, though single readings scatter. Potencies beside an inconclusive call are fits to weak or partial responses and may not hold up.

Each molecule was assayed against Cruzipain (Trypanosoma cruzi) (UniProt P25779) (assay: qHTS Assay for Promiscuous and Specific Inhibitors of Cruzain (without detergent)). Details: purified cruzain, Z-FR-AMC fluorescence, no detergent.
Chain of UniProt P25779 (P25779 whole entry, looked up): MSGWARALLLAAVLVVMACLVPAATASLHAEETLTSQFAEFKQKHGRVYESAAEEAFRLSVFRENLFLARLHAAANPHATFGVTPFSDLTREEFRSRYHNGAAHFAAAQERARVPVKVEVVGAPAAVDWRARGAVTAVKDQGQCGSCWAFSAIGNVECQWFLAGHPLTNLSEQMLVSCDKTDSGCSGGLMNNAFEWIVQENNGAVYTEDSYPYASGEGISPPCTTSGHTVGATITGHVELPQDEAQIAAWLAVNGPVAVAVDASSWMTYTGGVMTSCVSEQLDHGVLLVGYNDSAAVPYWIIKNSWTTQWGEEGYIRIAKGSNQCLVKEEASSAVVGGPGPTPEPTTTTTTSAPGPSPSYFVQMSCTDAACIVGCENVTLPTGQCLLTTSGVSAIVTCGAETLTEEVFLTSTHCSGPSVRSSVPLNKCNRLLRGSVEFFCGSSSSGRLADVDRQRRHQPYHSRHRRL
In short: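 Purified cruzain at 1.5 nM, pre-incubated 15 min with compound at room temperature in 100 mM sodium acetate pH 5.5, 5 mM DTT, 0.00005% Triton X-100. Reaction started with 2 uM Z-FR-AMC; AMC fluorescence increase over 60 s gives rate.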
Also: nearly all actives have a fitted effect of over 40% in size.
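For max response, negative = inhibition in this document: plate controls were enzyme without inhibitor for no effect and buffer without enzyme for full effect.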
Potency is read from the fitted curve at half-maximal effect; tags tell the direction and shape of the fitted curve.

For O=C(COCCOCC(=O)N(c1ccccn1)C1CCCCC1)N(c1ccccn1)C1CCCCC1, which Potency is on record?
The Potency was inconclusive: 39.8 µM [activator, single point].

Cc1ccc(Cl)cc1N1CCN(C(=O)c2ccc3c(c2)N(Cc2ccc(F)cc2)CCS3)CC1 was tested. Which Potency did it give?
The Potency was inconclusive: 2.51 µM [inhibitor, full curve, poor fit].

With Cc1cccc(NC(=O)N2CC(=O)Nc3sc4c(c3C2c2ccccc2)CCCC4)c1C (stereo unspecified) as the molecule, how does the max response, negative = inhibition read?
The max response, negative = inhibition was inactive: 2.98%.

For CSC1=N/C(=C\c2ccc3c(c2)OCO3)C(=O)S1, which Potency is on record?
Its Potency is inconclusive: 31.6 µM [inhibitor, single point].

CCOC(=O)C1CCN(C(=O)c2ccc(-n3ccc4ccccc43)s2)CC1 was tested. Which Potency did it give?
The Potency was inconclusive: 31.6 µM [activator, single point].

With COc1cc2c(cc1NC(=O)CSc1nc3ccccc3[nH]1)oc1ccccc12 as the molecule, how does the Potency read?
The Potency was active: 25.1 µM.

Which Potency does the source give for CCOc1cc(NS(=O)(=O)c2ccc(OC)cc2)c(OCC)cc1NC(=O)c1ccco1 here?
Its Potency is inconclusive: 31.6 µM [activator, single point].

With CCOC(=O)c1cccc(NC(=O)CCn2c(-c3ccc(F)cc3)cc(C(=O)OCC)c2C)c1 as the molecule, how does the max response, negative = inhibition read?
Its max response, negative = inhibition is inactive: -4.55%.

How did the Potency turn out when COc1ccc(-c2nc3ccccc3c(=O)n2CCOc2cccc(C)c2C)cc1 was run?
Its Potency is inconclusive: 12.6 µM [inhibitor, partial curve, poor fit].

Which Potency does the source give for COc1cc2nc(NC(=O)c3ccc(S(=O)(=O)N4CCOCC4)cc3)sc2cc1OC here?
Its Potency is inconclusive: 10 µM [activator, partial curve].

Which Potency does the source give for COc1ccc(-c2cccc(-c3cc(=O)oc4cc5c(cc34)OCO5)c2)cc1 here?
The Potency was inconclusive: 50.1 µM [inhibitor, single point].

Which max response, negative = inhibition does the source give for CCOc1ccc(CNS(=O)(=O)c2cc3c(cc2C)NC(=O)CO3)cc1OC here?
Its max response, negative = inhibition is inactive: -2.99%.

With Cc1ccc(CNC(=O)c2ccc(Cn3nc(C)c(Cl)c3C)o2)cc1 as the molecule, how does the Potency read?
Its Potency is inconclusive: 31.6 µM [activator, single point].

CC(CCc1ccccc1)NC(=O)C1CCCN(C(=O)c2cc3sccc3n2C)C1 (stereo unspecified) was tested. Which Potency did it give?
The Potency was inconclusive: 31.6 µM [activator, single point].

How did the Potency turn out when CCOc1ccccc1NC(=O)CSc1c(C)n[nH]c1C was run?
Its Potency is inconclusive: 39.8 µM [inhibitor, single point].

For COc1cccc(CNC(=O)c2cc3c(s2)-c2ccccc2OC3)c1, which Potency is on record?
The Potency was inconclusive: 39.8 µM [inhibitor, single point].

Which Potency does the source give for Cc1cccc(C(=O)Nc2nc(C)c(C(=O)Nc3ccc4c(c3)CCC4)s2)c1 here?
The Potency was inconclusive: 31.6 µM [inhibitor, single point].

CCOC(=O)c1c(NC(=O)C(Sc2ccccc2)c2ccccc2)sc(C(=O)N(C)C)c1C (stereo unspecified) was tested. Which Potency did it give?
The Potency was inconclusive: 39.8 µM [activator, single point].

CCCCN(CC)CCCNC(=O)CCN1N=C(c2ccc(OC)cc2)CCC1=O was tested. Which max response, negative = inhibition did it give?
Its max response, negative = inhibition is inactive: -0.851%.

Which Potency does the source give for O=S(=O)(Nc1nc2ccccc2nc1Nc1ccc2c(c1)OCCO2)c1cccs1 here?
Its Potency is active: 25.1 µM.

For O=c1c(-c2cc3ccccc3o2)[n+]([O-])c2ccccc2n1OCc1ccccn1, which Potency is on record?
The Potency was inconclusive: 39.8 µM [activator, single point].

CC1CCN(c2cc(N3CCC(C)CC3)c([N+](=O)[O-])cc2/C=C(\C#N)c2nn(-c3ccccc3)c(N)c2C#N)CC1 was tested. Which Potency did it give?
Its Potency is active: 2 µM.

Cc1nc2c(C(=O)NCCC3=CCCCC3)c[nH]n2c(=O)c1Cl was tested. Which Potency did it give?
Its Potency is inconclusive: 31.6 µM [activator, single point].

How did the max response, negative = inhibition turn out when C[N+](C)(C)c1ncnc2c1ncn2[C@@H]1C[C@H](O)[C@@H](CO)O1 was run?
Its max response, negative = inhibition is inactive: 10.5%.

Which Potency does the source give for COC(=O)c1ccc2c(=O)[nH]c(CN3c4ccccc4CC3C)nc2c1 (stereo unspecified) here?
The Potency was inconclusive: 7.94 µM [inhibitor, partial curve].

Which Potency does the source give for CCn1ccc2cc(S(=O)(=O)N3CCCN(C(=O)Nc4cccc(Cl)c4)CC3)ccc21 here?
The Potency was inconclusive: 39.8 µM [inhibitor, single point].

COc1ccc(-c2nc3ccc(N4CCCC4)cc3c(=O)[nH]2)cc1OC was tested. Which Potency did it give?
The Potency was inconclusive: 39.8 µM [activator, single point].

Which Potency does the source give for CCOc1ccc(NC(=O)CSc2nc3c(oc4ccccc43)c(=O)n2-c2ccccc2C)cc1 here?
Its Potency is inconclusive: 39.8 µM [inhibitor, single point].

For COc1ccc(N2CCCn3c2nc2c3c(=O)n(CCc3ccccc3)c(=O)n2C)cc1, which Potency is on record?
Its Potency is inconclusive: 25.1 µM [activator, single point].

COc1ccccc1-c1nnc(SCC(=O)c2ccc(Cl)cc2)n1-c1ccccc1 was tested. Which Potency did it give?
The Potency was active: 25.1 µM.

For CC(=O)OC1CC(C)OC(C)O1 (stereo unspecified), which max response, negative = inhibition is on record?
The max response, negative = inhibition was inactive: -0.607%.

For Cc1noc(NS(=O)(=O)c2ccc(NC(=O)C34CC5CC(C3)CC(n3cnc(Br)n3)(C5)C4)cc2)c1C, which Potency is on record?
Its Potency is inconclusive: 31.6 µM [activator, single point].

O=C(NC1CCCC1)c1cnn2c(C(F)(F)F)cc(-c3ccc4c(c3)OCO4)nc12 was tested. Which Potency did it give?
The Potency was inconclusive: 15.8 µM [activator, partial curve].

How did the max response, negative = inhibition turn out when CCOC(=O)C1CCN(c2ncnc3c2oc2ccccc23)CC1 was run?
Its max response, negative = inhibition is inactive: -0.004%.

With CCOc1ccc(OCC)c(NC(=O)c2nnn(CC(=O)Nc3ccc(C)cc3C)c2N)c1 as the molecule, how does the max response, negative = inhibition read?
The max response, negative = inhibition was inactive: 0.748%.

Which Potency does the source give for COc1ccc2[nH]cc(CCNc3cc(-c4cccnc4)ncn3)c2c1 here?
The Potency was inconclusive: 15.8 µM [inhibitor, partial curve].

Which Potency does the source give for COc1ccccc1-n1c(SCC(=O)NC2CCS(=O)(=O)C2)nc2cc([N+](=O)[O-])ccc21 (stereo unspecified) here?
The Potency was inconclusive: 39.8 µM [activator, single point].

With CC(C)CCNC(=O)c1cc(-c2ccco2)nc2ccccc12 as the molecule, how does the Potency read?
The Potency was inconclusive: 15.8 µM [activator, partial curve].

With CN1CCN(c2ncc3nc(-c4cccc(C#N)c4)c(=O)n(Cc4ccc(F)cc4)c3n2)CC1 as the molecule, how does the Potency read?
Its Potency is inconclusive: 3.16 µM [activator, single point].

Which max response, negative = inhibition does the source give for NCCc1c[nH]c2ccc(OC(=O)C(=O)O)cc12 here?
The max response, negative = inhibition was inactive: 7.62%.

C[C@@H](O)CNC(C)(C)CC(=O)N[C@@H]1CCc2ccccc2N(Cc2ccc(-c3ccccc3-c3nn[nH]n3)cc2)C1=O was tested. Which Potency did it give?
The Potency was inconclusive: 39.8 µM [activator, single point].
